Experimental data taken from patent US20250376529A1 (Amgen, published 2025).
Where a chain is given by its changes, count along the chain named. One block for each binder: values may come before it.

Target: T1, Rhesus GIPR (rhesus, UniProt F7E1R9 22-466)
T1 sequence: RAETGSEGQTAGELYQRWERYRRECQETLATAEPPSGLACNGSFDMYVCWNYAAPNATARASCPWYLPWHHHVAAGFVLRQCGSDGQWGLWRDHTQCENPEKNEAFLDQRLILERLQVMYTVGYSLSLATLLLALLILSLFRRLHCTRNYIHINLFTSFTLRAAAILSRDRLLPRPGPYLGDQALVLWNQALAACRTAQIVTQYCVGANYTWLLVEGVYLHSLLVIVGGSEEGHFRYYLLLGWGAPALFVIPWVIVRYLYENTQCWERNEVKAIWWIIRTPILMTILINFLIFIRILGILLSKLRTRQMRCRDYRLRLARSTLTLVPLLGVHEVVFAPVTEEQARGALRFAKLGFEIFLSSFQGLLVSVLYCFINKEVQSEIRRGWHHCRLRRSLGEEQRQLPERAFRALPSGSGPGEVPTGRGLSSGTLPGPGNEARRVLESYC
Assay: cell-based or functional assay

Rhesus GIPR CAMP Assay (Conc. mAb @ 60% Inhibition in nM): 7.02 nM
B1: 5C2.013 (antibody, human IgG1, kappa, N297G)
heavy: QVQLVQSGAEVKKPGASVKVSCKASGYTFTGYYIHWVRQAPGQGLEWMGWINPDAGGTDYSQRFQGRFTMTRDTSISTAYMELNRLRSDDTAVYYCAREATIFGMVIVPFDYWGQGTLVTVSSASTKGPSVFPLAPSSKSTSGGTAALGCLVKDYFPEPVTVSWNSGALTSGVHTFPAVLQSSGLYSLSSVVTVPSSSLGTQTYICNVNHKPSNTKVDKKV[human IgG1 Fc with R292C N297G V302C (EU numbers) not written out]
light: DIVMTQSPDSLAVSLGERATINCKSSQSVLSSSNNKNYIAWYQQQPGHPPKLLIYWASTRESGVPDRFSGSGSGTDFTLTISSLQAEDVAVFYCQQYYSTPWTFGQGTKVEIKRTVAAPSVFIFPPSDEQLKSGTASVVCLLNNFYPREAKVQWKVDNALQSGNSQESVTEQDSKDSTYSLSSTLTLSKADYEKHKVYACEVTHQGLSSPVTKSFNRGEC

Rhesus GIPR CAMP Assay (Conc. mAb @ 60% Inhibition in nM): 0.54 nM
B2: 5C2.014 (antibody, human IgG1, kappa, N297G)
heavy: B1 heavy with Q3P, F68V
light: B1 light
